Experimental data as given in PMC4340055 (Methods in molecular biology (Clifton, N.J.), 2015).

Target: the molecule itself
Assay: native gel or EMSA

B1: Cy3-Hfq:S65C protein (natural protein)
chain: not shown
modifications: Cy3-maleimide on the cysteine of S65C
stoichiometry N: 6 and 12

Where “and” joins values, the source holds several entries; their conditions need not be identical. Identical values can stand only once.
